Measurements reported in the supplement of paper PMC9446081.
Hit rate of the full screen: of about 39,000 compounds, about 220 (0.56%) showed activity. This is one part of the list.

test system: Escherichia coli K-12 BW25113; test: relative growth (OD600 normalised to plate interquartile mean) (fraction); higher = less growth inhibition, active = 0.2 or less; details: 50 µM; LB; incubation time: overnight (16-24 h)
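Further: static incubation at 37 °C against the wild-type strain, values averaged over two biological replicates.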

| SMILES | relative growth |
| --- | --- |
| CCn1cc(C(=O)O)c(=O)c2cnc(N3CCCC3)nc21 | inactive: 1.09 |
| COc1ccccc1C#Cc1ccc2c(c1)O[C@H](CN(C)Cc1ccncc1)[C@@H](C)CN([C@H](C)CO)S2(=O)=O | inactive: 1 |
| COc1ccc(NC(=O)N(C)C[C@H]2Oc3ncc(C#CCN(C)C)cc3C(=O)N([C@@H](C)CO)C[C@@H]2C)cc1 | inactive: 1 |
| CO[C@H]1[C@@H](O)[C@H](n2ccc(N)nc2=O)O[C@@H]1CO | inactive: 0.977 |
| Cc1cccc(CO)n1 | inactive: 0.975 |
| CO[C@@H]1CN(C)C(=O)c2ccc(NS(=O)(=O)c3cn(C)cn3)cc2OC[C@@H](C)N(CCC(F)(F)F)C[C@@H]1C | inactive: 1.01 |
| COc1ccc(CN(C)C[C@H]2OCCCC[C@H](C)Oc3ccc(NC(=O)C4CCCCC4)cc3C(=O)N([C@H](C)CO)C[C@@H]2C)cc1 | inactive: 0.998 |
| CC(C)(C)OC(=O)CC[C@]1(C(=O)NC[C@@H](O)CO)COC(c2ccc(OCCCO)cc2)=N1 | inactive: 1.01 |
| COc1ccc([Si](C)(C)[C@H]2[C@H](CC(=O)N3Cc4ccccc4C[C@H]3CO)O[C@@]3(C(=O)N(Cc4cccc(N5CCCCC5=O)c4)c4ccccc43)[C@@H]2C)cc1 | inactive: 1.03 |
| CS(=O)(=O)Nc1ccc2c(c1)[C@@H]1C[C@@H](CC(=O)NCC3CC3)O[C@@H](CO)[C@@H]1O2 | inactive: 0.975 |
| C[C@H]1CCCCO[C@@H](CN(C)Cc2ccc(C(=O)O)cc2)[C@@H](C)CN([C@@H](C)CO)C(=O)c2cc(NC(=O)NC3CCCCC3)ccc2O1 | inactive: 1.01 |
| CNC[C@@H]1Oc2cc(C#CCN(C)C)ccc2S(=O)(=O)N([C@H](C)CO)C[C@H]1C | inactive: 1.01 |
| C[C@@H]1CN([C@H](C)CO)C(=O)Cc2cc(NC(=O)CCCN(C)C)ccc2O[C@H]1CN(C)S(=O)(=O)c1ccc(F)cc1 | inactive: 0.994 |
| COc1ccc(S(=O)(=O)Nc2ccc3c(c2)CC(=O)N([C@@H](C)CO)C[C@H](C)[C@H](CN(C)S(=O)(=O)c2cn(C)cn2)O3)cc1 | inactive: 1.03 |
| Cc1noc(C)c1S(=O)(=O)Nc1ccc2c(c1)C(=O)N([C@@H](C)CO)C[C@@H](C)[C@H](CN(C)Cc1ccccc1)OCCCC[C@H](C)O2 | inactive: 1 |
| COC(=O)CN(C)c1nnc(N)s1 | inactive: 0.997 |
| Nc1cccc(-n2cc(CCC(=O)NO)nn2)c1 | inactive: 0.993 |
| CN(C)C(=O)c1ccc(-c2ccc3n(c2=O)C[C@H]2[C@H](CO)[C@@H](C(=O)NCCc4ccccc4)N[C@@H]32)cc1 | inactive: 1.02 |
| NC1CCN(Cc2ccccc2)CC1 | inactive: 1.09 |
| CCNC(=O)N1CCC(O)CC1 | inactive: 0.966 |
| C[C@@H]1CCCCO[C@@H](CN(C)S(=O)(=O)c2cn(C)cn2)[C@@H](C)CN([C@@H](C)CO)C(=O)c2cc(NS(C)(=O)=O)ccc2O1 | inactive: 1.01 |
| O=C(NCCCl)N(CCCl)[N+][O-] | inactive: 0.992 |
| CCCCCCCCCCCCC[N+](C)(C)Cc1ccccc1 | active: 0.0319 |

| SMILES | relative growth |
| --- | --- |
| N#CCN(CC#N)C(=O)c1ccco1 | inactive: 0.932 |
| C[C@@H]1CCCCO[C@@H](CN(C)CC2CC2)[C@H](C)CN([C@H](C)CO)C(=O)c2cc(NC(=O)C3CCCCC3)ccc2O1 | inactive: 1.01 |
| C[C@@H]1CN([C@@H](C)CO)C(=O)Cc2cc(NC(=O)Cc3cn(C)c4ccccc34)ccc2O[C@@H]1CN(C)S(=O)(=O)c1cn(C)cn1 | inactive: 1.01 |
| C[C@@H]1CCCCO[C@@H](CN(C)C(=O)c2ccccc2)[C@@H](C)CN([C@@H](C)CO)C(=O)c2cc(NC(=O)Nc3cccc4ccccc34)ccc2O1 | inactive: 0.995 |
| Nc1cccc(/C=C/c2ccccn2)c1 | inactive: 0.97 |
| Nc1cccc(OCc2ccccc2)c1 | inactive: 0.931 |
| O=C(N[C@@H]1CC=CC[C@H](CC(=O)N(CCO)Cc2ccccc2)C(=O)NC[C@H](c2ccccc2)OC1=O)OCC1c2ccccc2-c2ccccc21 | inactive: 0.982 |
| C[C@@H]1CN([C@H](C)CO)C(=O)c2cccc(N(C)C)c2O[C@H]1CN(C)S(C)(=O)=O | inactive: 1.02 |
| C[C@H]1CN([C@@H](C)CO)C(=O)c2cccc(NC(=O)c3nc4ccccc4s3)c2O[C@@H]1CN(C)C(=O)Nc1ccc(C(F)(F)F)cc1 | inactive: 0.772 |
| C[C@@H]1CN([C@@H](C)CO)C(=O)Cc2cc(NS(C)(=O)=O)ccc2O[C@H]1CN(C)C(=O)Nc1ccc(C(F)(F)F)cc1 | inactive: 1.01 |
| C[C@@H]1CCCCO[C@H](CN(C)C(=O)NC2CCCCC2)[C@@H](C)CN([C@H](C)CO)C(=O)c2cc(NS(=O)(=O)c3cccs3)ccc2O1 | inactive: 1.02 |
| CC(C)NC(=O)N(C)C[C@H]1Oc2ccc(NC(=O)Nc3ccc4c(c3)OCO4)cc2C(=O)N([C@H](C)CO)C[C@H]1C | inactive: 0.993 |
| NCc1ccccc1-n1cncn1 | inactive: 1 |
| CCOC(=O)c1c(CNCCN(CC)CC)n(-c2ccccc2)c2cc(Br)c(OC)cc12 | inactive: 0.978 |
| Cc1noc(C)c1NC(=O)Nc1ccc2c(c1)C(=O)N([C@H](C)CO)C[C@H](C)[C@H](CN(C)CC1CCCCC1)OCCCC[C@@H](C)O2 | inactive: 0.982 |
| NCCCC[C@@H]1NC(=O)[C@H](CCC(=O)O)NC(=O)c2cc([N+](=O)[O-])ccc2OCC[C@@H](C(=O)NCC(=O)O)NC1=O | inactive: 1.02 |
| C[C@@H]1CCCCO[C@@H](CN(C)C(=O)Nc2ccc(C(F)(F)F)cc2)[C@@H](C)CN([C@@H](C)CO)C(=O)c2cc(N(C)C)ccc2O1 | inactive: 0.991 |
| CCOC(=O)/C(=N/O)C1=NNC(=N)SC1 | inactive: 0.959 |
| COC(=O)c1c(C)cc(O)cc1O | inactive: 0.964 |
| NCCCn1ccnc1 | inactive: 1 |
| C[C@@H]1CCCCO[C@H](CN(C)Cc2ccc(C(=O)O)cc2)[C@@H](C)CN([C@H](C)CO)C(=O)c2cc(NC(=O)NC3CCCCC3)ccc2O1 | inactive: 1.01 |
| C[C@@H]1CN([C@@H](C)CO)S(=O)(=O)c2ccc(-c3cccc(F)c3)cc2O[C@@H]1CN(C)S(C)(=O)=O | inactive: 0.989 |
| C[C@H](CO)N1C[C@H](C)[C@@H](CN(C)S(=O)(=O)c2ccc(Cl)cc2)OCc2cnnn2CCCC1=O | inactive: 0.99 |

| SMILES | relative growth |
| --- | --- |
| C[C@@H]1COC(=O)N1 | inactive: 0.92 |
| Cc1noc(C)c1NC(=O)Nc1ccc2c(c1)C(=O)N([C@H](C)CO)C[C@@H](C)[C@H](CN(C)C(=O)Nc1ccc(F)cc1)OCCCC[C@@H](C)O2 | inactive: 1.02 |
| Cc1cc(Oc2ccc3nc(COc4ccc(C[C@H]5SC(=O)NC5=O)cc4)n(C)c3c2)cc(C)c1N | inactive: 1.02 |
| CO[C@H]1CN(C)C(=O)c2cc(NS(=O)(=O)CC(F)(F)F)ccc2OC[C@@H](C)N(Cc2nccs2)C[C@H]1C | inactive: 0.984 |
| COc1ccc(-c2cnc3c(c2)C(=O)N([C@@H](C)CO)C[C@@H](C)[C@@H](CN(C)C(=O)Cc2ccncc2)O3)cc1 | inactive: 0.995 |
| C[C@@H]1CN([C@@H](C)CO)C(=O)c2cc(NS(=O)(=O)c3ccc(Cl)cc3)ccc2O[C@@H](C)CCCCO[C@H]1CN(C)CC1CC1 | inactive: 1.02 |
| C[C@@H]1CCCCO[C@H](CN(C)C(=O)C2CCCCC2)[C@H](C)CN([C@@H](C)CO)C(=O)c2cc(NS(=O)(=O)c3ccc(Cl)cc3)ccc2O1 | inactive: 0.855 |
| C[C@H](CO)N1C[C@H](C)[C@H](CN(C)Cc2ccc(C(F)(F)F)cc2)Oc2ccc(NS(C)(=O)=O)cc2CC1=O | inactive: 0.954 |
| C[C@@H]1CN([C@H](C)CO)C(=O)c2cc(-c3cncnc3)cnc2O[C@@H]1CN(C)C(=O)Nc1ccc2c(c1)OCO2 | inactive: 1.01 |
| COc1ccc(NC(=O)Nc2ccc3c(c2)C(=O)N([C@H](C)CO)C[C@@H](C)[C@H](CN(C)C(=O)C2CCCCC2)OCCCC[C@H](C)O3)cc1 | inactive: 1.02 |
| O=C(CN1CCNCC1)c1ccc(F)cc1 | inactive: 1 |
| C[C@H]1CN([C@@H](C)CO)C(=O)c2cc(C#Cc3ccccc3F)cnc2O[C@H]1CN(C)C(=O)C1CCOCC1 | inactive: 0.966 |
| C[C@H]1CN([C@@H](C)CO)C(=O)c2cccc(NC(=O)Nc3cccc4ccccc34)c2O[C@H]1CN(C)C(=O)Nc1ccccc1 | inactive: 1.04 |
| CO[C@@H]1CN(C)C(=O)c2cc(NC(=O)C3CC3)ccc2OC[C@H](C)N(C(=O)Cc2ccccn2)C[C@@H]1C | inactive: 1.04 |
| C[C@@H]1CN([C@@H](C)CO)C(=O)c2cccc(NC(=O)c3ccc(-c4nccs4)cc3)c2O[C@H]1CN(C)Cc1ccc2c(c1)OCO2 | inactive: 1.04 |
| O=C(Nc1c(Cl)cncc1Cl)c1ccc(OC(F)F)c(OCC2CC2)c1 | inactive: 1.09 |
| CCOC(=O)OC(C)OC1=C(C(=O)Nc2ccccn2)N(C)S(=O)(=O)c2ccccc21 (configuration not stated) | inactive: 1.03 |
| C[C@@H]1CN([C@H](C)CO)C(=O)c2cc(NC(=O)CCCN(C)C)ccc2O[C@@H](C)CCCCO[C@H]1CN(C)C(=O)Nc1cccc2ccccc12 | inactive: 0.971 |
| COc1ccc(CN(C)C[C@H]2Oc3ccc(NC(=O)Nc4cccc5ccccc45)cc3C(=O)N([C@H](C)CO)C[C@@H]2C)cc1 | inactive: 0.987 |
| C[C@@H]1CN([C@H](C)CO)C(=O)c2cc(NC(=O)NC3CCCCC3)ccc2O[C@H]1CN(C)Cc1ccc(-c2ccccc2)cc1 | inactive: 1.07 |
| COCCNC(=O)C[C@@H]1C[C@H]2c3cc(NS(C)(=O)=O)ccc3O[C@H]2[C@H](CO)O1 | inactive: 0.998 |
